Kd, koff and kon data for 3 molecules are collected here from patent US20220267458A1 (Innovent, published 2022).

What is called Kd is the equilibrium constant for the complex coming apart. As usually defined, the koff is a measure of how fast the partners let go of each other. Higher therefore signals fast dissociation. In general, kon refers to a measure of how fast the partners come together. Lower therefore signals slower complex formation.

T1: human GITR-His (human, UniProt Q9Y5U5 26-161)
T1 construct: Bought from Acro biosystems; also called GITR-His (Acro biosystems); antigen GITR-His
T1 sequence: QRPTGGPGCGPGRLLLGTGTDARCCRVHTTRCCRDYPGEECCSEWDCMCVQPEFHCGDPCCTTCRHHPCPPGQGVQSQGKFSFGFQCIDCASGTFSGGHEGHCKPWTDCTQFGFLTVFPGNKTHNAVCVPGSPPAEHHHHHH

B1: 4×Nb-IgG-I (antibody)
heavy: QVQLQESGGGLVQPGGSLRLSCAASGYSRTSRWMAWFRQAPGKGLEGVAAIYTGGSSTLYADSVKGRFTISRDNAKNSVYLQMNSLRAEDTAVYYCAADKLAGDFWLVDRWRAWGQGTLVTVSS[sequence of human IgG1 Fc not given]GGGGSQVQLQESGGGLVQPGGSLRLSCAASGYSRTSRWMAWFRQAPGKGLEGVAAIYTGGSSTLYADSVKGRFTISRDNAKNSVYLQMNSLRAEDTAVYYCAADKLAGDFWLVDRWRAWGQGTLVTVSS
notes: Tetravalent form with four identical nanobody regions: VHH of HzhcIgG-20 linked to the C-terminus of HzhcIgG-20 via GGGGS; two identical chains; also called 4xNb-IgG-I
B2: 4×Nb-IgG-II (antibody)
heavy: QVQLQESGGGLVQPGGSLRLSCAASGYSRTSRWMAWFRQAPGKGLEGVAAIYTGGSSTLYADSVKGRFTISRDNAKNSVYLQMNSLRAEDTAVYYCAADKLAGDFWLVDRWRAWGQGTLVTVSSGGGGSQVQLQESGGGLVQPGGSLRLSCAASGYSRTSRWMAWFRQAPGKGLEGVAAIYTGGSSTLYADSVKGRFTISRDNAKNSVYLQMNSLRAEDTAVYYCAADKLAGDFWLVDRWRAWGQGTLVTVSS[sequence of human IgG1 Fc not given]
notes: Tetravalent form with four identical nanobody regions: VHH of HzhcIgG-20 linked to the N-terminus of HzhcIgG-20 via GGGGS; two identical chains; also called 4xNb-IgG-II
B3: 4×Nb-IgG-III (antibody)
heavy: QVQLQESGGGLVQPGGSLRLSCAASGYSRTSRWMAWFRQAPGKGLEGVAAIYTGGSSTLYADSVKGRFTISRDNAKNSVYLQMNSLRAEDTAVYYCAADKLAGDFWLVDRWRAWGQGTLVTVSSQVQLQESGGGLVQPGGSLRLSCAASGYSRTSRWMAWFRQAPGKGLEGVAAIYTGGSSTLYADSVKGRFTISRDNAKNSVYLQMNSLRAEDTAVYYCAADKLAGDFWLVDRWRAWGQGTLVTVSS[sequence of human IgG1 Fc not given]
notes: Tetravalent form with four identical nanobody regions: VHH of HzhcIgG-20 linked directly to the N-terminus of HzhcIgG-20; two identical chains; also called 4xNb-IgG-III

In this assay the target is T1, human GITR-His. The assay is described as follows: ForteBio BLI, antibody on AHQ tip, human GITR-His 100 nM in solution. The method, then:
(2) Experimental procedure: 100 μl of SD buffer and antibodies (hcIgG-02, hcIgG-03, hcIgG-04, hcIgG-07, hcIgG-09, hcIgG-10, hcIgG-16 and hcIgG-20, control antibody), GITR-His (Acro biosystems) were added to a 96-well half-volume black polystyrene microplate. The plate was arranged according to the positions of the samples, the position of the sensor was selected, and the operation procedures were set as: Baseline, Loading ˜1 nm, Baseline, Association and Dissociation, each running for a time depending on the binding and dissociation rates of the sample, at a rotation speed of 400 rpm and a temperature of 30° C.
In this experiment, kinetics and affinity for the antigen-antibody binding were determined using the ForteBio method in the same way as in Example 4.
A general note: Biolayer interferometry detects binding as a change in optical thickness at a sensor tip.
With B1, binding was characterised by a dissociation constant (Kd) of 4.6 nM, the koff was determined as 0.000636 s⁻¹ and the kon was 138000 M⁻¹ s⁻¹.
As to B2, binding was put at a Kd of 8.65 nM, the koff turned out to be 0.000659 s⁻¹ and the on-rate (kon) worked out at 76200 M⁻¹ s⁻¹.
Molecule B3 came in with a Kd of 6.85 nM, a koff of 0.000655 s⁻¹ and a kon of 95600 M⁻¹ s⁻¹.
